Experimental data: patent CN112961250A (CHANGCHUN GENESCIENCE PHARMACEUTICALS CO LTD, dated 2021)

Target: T1, 人VEGFA-His(金赛自构) (human, UniProt P15692 207-395)
T1 construct: also called hVEGFA
T1 sequence: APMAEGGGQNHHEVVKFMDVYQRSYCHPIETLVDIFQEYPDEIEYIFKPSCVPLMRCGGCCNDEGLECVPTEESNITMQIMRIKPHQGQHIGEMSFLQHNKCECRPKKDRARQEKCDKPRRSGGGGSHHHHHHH
Assay: ELISA, human VEGFA-His coated at 1 μg/ml

binding result: binds
B1: Eylea (Fc fusion)
chain: SDTGRPFVEMYSEIPEIIHMTEGRELVIPCRVTSPNITVTLKKFPLDTLIPDGKRIIWDSRKGFIISNATYKEIGLLTCEATVNGHLYKTNYLTHRQTNTIIDVVLSPSHGIELSVGEKLVLNCTARTELNVGIDFNWEYPSSKHQHKKLVNRDLKTQSGSEMKKFLSTLTIDGVTRSDQGLYTCAASSGLMTKKNSTFVRVHEK[letters of human IgG1 Fc left out]
notes: Marketed drug used as the control; also called 再生元公司上市抗hVEGFA药物; 阳性对照药物Eylea
